Data reported in the supplement of paper PMC11417369.
± gives the standard deviation of the averaged measurements. This is one part of the list.

test system: PfAP2-I AP2 domain 3 (GST-tagged); assay: gcPBM binding intensity (ln(normalized median fluorescence intensity)); higher = stronger DNA binding
In short: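 Alexa488 anti-GST antibody, scanned at 488 nm, detected GST-tagged P. falciparum DNA-binding domains that had been expressed in E. coli and incubated for 1 h on an Agilent 4 × 180k array. The array carried primer-extended double-stranded 36-bp intergenic genomic probes and negative controls. Binding intensity is the highest Masliner-normalised natural-log median intensity across replicate spots of either orientation of each probe.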

Row | Sequence | gcPBM binding intensity (ln)
1 | TAAATTTTTCTAAGTGCATGTTAATTTTTCAATTTA [TGCATGCA_site906] | 9.19 ± 0.59
2 | ATATTATTTATAAAAGTGCAAAAATCACTTCTTTTA [GTGCAC_site9656] | 9.38 ± 0.22
3 | TTTAAAAAGTTATGAAGTACATATATATATATATAT [XGTACX_site2188] | 9.43 ± 0.48
4 | GAACAAAATGATAGAAGTACAAATATTTATTTTGTT [XGTACX_site7146] | 7.84 ± 0.64
5 | TGGGAACAATATATTTGTACTTAAATAAATAAAAAA [XGTACX_site6762] | 7.76 ± 0.61
6 | AAAGAGAAACAAAATTGTACATTATATTGTAGACGT [XGTACX_site976] | 7.88 ± 0.67
7 | TATATTTATAAGTGTACACATTATATAAATCCCTAT [CACACA_site6122] | 8.08 ± 0.27
8 | ATTAAATGATTCATATGTACATAAATAAATAAATAT [XGTACX_site2249] | 8.02 ± 0.32
9 | TTTCTTTTTAAAGTGTATTAAAATTGAATAAAAAGA [XGTACX_negctrl_site408] | 8.1 ± 0.19
10 | TATTAATATTTACACACATGCGCACACATAAATAAA [TGCATGCA_site609] | 8.69 ± 0.46
11 | TTTTTTTTTTTTGTCACACACCTTCATAAGAAAAAA [CACACA_site4779] | 8.21 ± 0.66
12 | ATCATCACATAAGAAAATAGATAAAAAAAAAAAAAT [XGTACX_negctrl_site589] | 7.53 ± 0.48
13 | GTACAGATATTGTACATACACACCTATATAAATATC [CACACA_site5739] | 7.94 ± 0.4
14 | TAAATCCGCAGGCACACACACATATTAAGAAAAAAA [CACACA_site6061] | 8.18 ± 0.36
15 | ATGAAAAAACATAATTGTACAAAAGTTGGATTCGAT [XGTACX_site7732] | 8.33 ± 0.52
16 | TATTTAAAAGATGAAAGTACACATTTAATTACATTT [XGTACX_site3781] | 7.75 ± 0.17
17 | ATGTGTATACTAAGAACACACAAGTTACTTGGTGTT [CACACA_site6864] | 7.47 ± 0.7
18 | TATATTTAACATACTTTTTTTTTTTTTTTTTTTTTT [CACACA_negctrl_site938] | 9.55 ± 0.099
19 | AAAAAAAAAAAACATACACACAAGAACAAAATATGA [CACACA_site3002] | 7.94 ± 0.14

Row | Sequence | gcPBM binding intensity (ln)
20 | AGTCTTTTACATTGCACACACATTTCTTTCCTTTTG [CACACA_site2988] | 9.24 ± 0.39
21 | TAATTAGCATAATACACATGCATACATTTATATATA [TGCATGCA_site542] | 7.94 ± 0.65
22 | TACATATATCTATGTGTGCACTTATTTCCGGACAAA | 10.4 ± 0.15
23 | TATCTGTATTTGTATACACACAAATGTATTTATTTA [CACACA_site4830] | 7.7 ± 0.56
24 | TACAATATTTCGAGCTTGCACTTTTATTAAGTAAAT | 8.09 ± 0.52
25 | TATACAGACAGACACACACACATATATAAATATGTA [CACACA_site6912] | 7.76 ± 0.35
26 | ATTATTATTTTTAACTGTACATAGATATAGATATCC [XGTACX_site8714] | 7.82 ± 0.5
27 | TAAGAAAAATATATATGTACACATATATATATATAT [XGTACX_site8542] | 9.01 ± 0.74
28 | AACTTTTATACGGATACACACAAAAAAAAATAAAAA [CACACA_site6547] | 7.88 ± 0.28
29 | TGTATGTTATATACAACACACAAAAAAAAACAAGTT [CACACA_site301] | 7.62 ± 0.7
30 | TGATTAAAAGAGGGAAAAAAAAAAAAAAAAAAAAAA [CACACA_negctrl_site896] | 8.23 ± 0.91
31 | TGACGAAAAAAAAGGGTGCTTAGTATAACTTTAAAG | 9.085 ± 0.049
32 | TTCTTTTTTAAACACACACACACAAGAAAATATATA [CACACA_site5680] | 8.29 ± 0.27
33 | TCGACAAATGTATATACACACATTTGTAACATAAAT [CACACA_site560] | 7.58 ± 0.39
34 | TATAAAGGTGAAATTTGTACATAGTCATTTTTTAAT [XGTACX_site4811] | 7.72 ± 0.62
35 | TTATTCAGAAAAAAAAAAAAAAAAAAAAAAAAAAAA [CACACA_negctrl_site1662] | 8.29 ± 0.95
36 | GAGAAGACATTACACAGTACCCAGGAAATCTACGGA [XGTACX_site1993] | 7.56 ± 0.82
37 | ATATGTAAAGAAAAGTAAACACTAATTTTAAACAAT [CACACA_negctrl_site11] | 7.48 ± 0.76
38 | TATATATATGTGCAGTGTACTTTTTTTTTCTGTAAG [XGTACX_site3424] | 8.8 ± 0.93

Row | Sequence | gcPBM binding intensity (ln)
39 | TTTTTTTTAATTGTGATACGTATATTATTTTTTGAT [TGCATGCA_negctrl_site318] | 7.72 ± 0.5
40 | ATTTTTAATATTATTACACACACTAATAAAAAAAAA [CACACA_site8265] | 7.96 ± 0.27
41 | ATATATATATATATATGTACTTAATATTTCTTATTT [XGTACX_site6206] | 9.37 ± 0.25
42 | TATATTAAGTATAAGACACACATATAGTAATAGAAA [CACACA_site5176] | 7.71 ± 0.58
43 | TTATAAAAAAAAATAACACACAGACATAAGAATAAA [CACACA_site9383] | 8.09 ± 0.61
44 | AAATATAATAATAATTTAAGAATCTAATATTTTATA [CACACA_negctrl_site831] | 7.05 ± 0.35
45 | TACTATATCGATACCAGTACAGATTTATAAATAATA [XGTACX_site7491] | 7.68 ± 0.35
46 | ATATAACTTTTCTTAACACACAAAAAACAAAAATAA [CACACA_site2380] | 8 ± 0.49
47 | AAGTGTCAAAGTTACACACACAAACTTGTCATTTTT [CACACA_site837] | 7.55 ± 0.79
48 | GGTATACATATTAAATGTACATATTTTAACAATAAG [XGTACX_site4868] | 7.83 ± 0.15
49 | ATATAATTATATAAATGTACTCATTCGTTATTTTGC [XGTACX_site6132] | 7.65 ± 0.37
50 | TATGAATATCTATACACACACATATATATACTCACT [CACACA_site1597] | 7.76 ± 0.56
51 | CAAAGATATATAAACACACAAATATAACATATATAC [CACACA_site7395] | 7.68 ± 0.58
52 | TATGTATATTTTTTTGTGCACATATATATATATATA | 10.72 ± 0.099
53 | TATATTATTATATATTGTACTTTTTATATTTGCATT [XGTACX_site2978] | 7.72 ± 0.49
54 | TACACTTGTAATTGCGTGCACGAAGGATATATATAT | 9.95 ± 0.3
55 | ATTTTTTTTTTAAAATGTACATGAGAAATTGTATAT [XGTACX_site425] | 8.03 ± 0.22
56 | TTTCTTATATAAGTGTACTAAAATATATATATGCAA [GTGCAC_negctrl_site546] | 8.14 ± 0.36
57 | TATATTATTAATTAAGCACACATTATTTTTATAATA [CACACA_site3982] | 8.54 ± 0.3
